# In all, about 150,000 compounds went through this assay and about 540 (0.36%) showed an effect of 50% or more. This is one part of the list.
# Test system: Plasmodium falciparum
# Assay: Primary screen in NF54 nanoGlo assay, in single point, at 2uM, 72h; a lower Z score goes with more inhibition
# Format: functional, Erythrocyte
# Conditions: timepoint 72 hour
Structure (SMILES),% Inhibition,Z score
CCCc1ncncc1C(=O)NCC1(CO)CCOCC1,-7%,1.35
CC(C)c1noc(-c2cccn3c(CNC(=O)C4CCCCC4)nnc23)n1,-7%,1.41
CCc1cc(C(=O)NCc2ccco2)no1,2%,-0.23
Clc1ccc2oc(NCc3cccnc3)nc2c1,-2%,0.4
CCc1noc(CC)c1CNC(=O)Nc1ccc2c(c1)CCCO2,4%,-0.82
COC1(CO)CCN(c2nnnn2Cc2cccc(Cl)c2)CC1,-7%,0.96
O=C(O)C[C@H]1CNCCN(C(=O)c2cccc(Oc3ccccc3)c2)C1,4%,-0.81
CS(=O)(=O)N[C@H]1C[C@@H]2C[C@H]1CN2C(=O)c1ccccc1C(F)(F)F,-8%,1.15
O=C(NC[C@H]1CCS(=O)(=O)C1)c1ccc2sccc2c1,2%,-0.33
COC[C@H](C)N1Cc2ccc(O)cc2C1,-4%,0.78
CC(C)NC(=O)c1ccc2nc3ccccc3c(=O)n2c1,-9%,1.62
C[C@H]1Cc2ccccc2N1C(=O)c1ccc2c(c1)CCC(=O)N2,0%,-0.01
Cn1cnnc1CCC(=O)NC[C@@]1(C)CCCO1,-7%,1.34
Cc1cc(C(=O)NCC2CCc3ccccc3CC2)oc1C(=O)O,-26%,2.59
C=Cc1ccc(S(=O)(=O)N2CCOC[C@@]23CCOC3)cc1,-14%,2.4
COc1ccc(-n2nc(C(=O)Nc3ccc(F)cc3)c(=O)n(Cc3ccccc3)c2=O)cc1,4%,-0.36
CC(=O)Nc1cccc(C(=O)N2CC3CC2CO3)c1 (stereo not drawn),-9%,1.01
CC[C@H](NC1CCN(c2cc(C)nc(C)n2)CC1)c1ccc2c(c1)CCO2,-8%,0.97
CC1(NC(=O)CNC(=O)NC2CC2)CCCCCC1,-13%,1.97
CC(C)CN(C(=O)c1ccc(Cl)c(S(=O)(=O)N2CCCCCC2)c1)C1CC1,4%,-0.6
O=C1NCCc2c[n+](Cc3ccccc3)cn21,-14%,1.8
CCn1ccc2ccc(CN3CCc4[nH]cnc4[C@@H]3C(=O)O)cc21,13%,-1.86
Fc1ccc(-c2noc([C@@H]3Cc4[nH]cnc4CN3Cc3ccccc3)n2)cc1Cl,-3%,0.43
CCCc1cc(CNS(=O)(=O)c2ccc(C)s2)on1,-4%,0.56
CCC(C)(C)[C@@H]1CCCN1C(=O)c1coc(S(N)(=O)=O)c1,-6%,1.06
Cc1nc(N2CCCC2C(=O)N2CCC(C(O)Cc3ccccc3)CC2)nc2ccccc12 (stereo not drawn),-15%,1.71
CC1(C)CC(CS(=O)(=O)N2CCC(CC(N)=O)CC2)C1,-9%,1.61

Structure (SMILES),% Inhibition,Z score
C[C@@H]1CN(c2ncccc2F)CC[C@]1(C)O,-19%,3.66
O=C(c1ccc(F)cc1Cl)N1CC(N2CCc3ccccc3C2)C1,-1%,0.22
COc1ccc(-c2cc3c(=O)n(Cc4nc(-c5ccccc5)oc4C)ccn3n2)cc1,-11%,1.1
CCC[C@@H](CNc1ccc(C(C)C)nn1)N(C)C,-9%,1.74
CCc1cn[nH]c1[C@H]1CCCN(c2nc3c(C)cccc3cc2CO)C1,0%,0.06
CC(=O)N[C@H]1CCN(C(=O)Nc2c(-c3ccccc3)cnn2C(C)(C)C)C1,-15%,1.36
O=C(N[C@@H]1CCC[C@@H]1C(=O)NCCCc1ccccc1)c1ccncc1,-16%,2.15
Cc1cc(Nc2cnn(C)c2)n2nc(C)cc2n1,-9%,1.61
CCOc1cccnc1C(=O)N1CCC2(CC1)CN(C(C)=O)[C@@H]1COC[C@@H]12,-12%,1.88
Cn1nccc1CNCCNc1cccc(Br)c1,-5%,0.75
Cc1c(-c2noc(C(=O)NCCN3CCN(c4ccccc4F)CC3)n2)oc2c(C)cccc12,-8%,1.03
CCc1ccc(CN(C)CC2(C)COC2)s1,-12%,1.52
O=C1c2ccccc2O[C@@]2(C=Cc3ccccc3O2)N1Cc1ccccc1,-11%,1.45
CCN(CC(=O)Nc1ccccc1OC)C(=O)c1ccc(S(=O)(=O)N2CCOCC2)cc1,34%,-0.62
OC1CCN(Cc2ccc(CNCc3cc(F)ccc3F)cc2)CC1,-3%,0.42
Cc1ccc(C[C@H](NC(=O)c2ccncc2)c2ccccn2)cc1,1%,-0.15
Cc1nn(CC(=O)N2C3CCC2CC(O)C3)c(C)c1Cl (stereo not drawn),30%,-3.43
CN(CCCc1ccco1)[C@H]1CS(=O)(=O)C[C@@H]1O,1%,-0.14
O=C(O)c1cn(-c2nc(-c3ccc(Br)cc3)cs2)c2c(F)c(F)c(F)cc2c1=O,-1%,0.18
O=C1CCCN1c1ccc(S(=O)(=O)Oc2ccccc2-c2ccccc2)cc1,-3%,0.34
COc1ccc(CN2CCCN(c3ccc(NC(=O)COc4ccccc4)cn3)CC2)c(OC)c1OC,-5%,0.52
CCCNC(=O)[C@H](C)NC(=O)C1CCN(C(=O)[C@H](Cc2c[nH]c3ccccc23)NC(=O)OC(C)(C)C)CC1,-4%,0.5
CC(C)CNC(=O)c1cc2n(n1)CCN(Cc1cccc(Cl)c1)C2=O,-6%,0.68
Cc1ccc(N2CCN(CCCNC(=O)c3nc(-c4cncnc4)no3)CC2)cc1C,-4%,0.61
Cc1cc(F)cc(-n2cc(NC(=O)COC[C@H]3CCCO3)nn2)c1,-14%,2.33
Cc1ccc(OC(=O)c2cccc(N3C(=O)C4CCC(c5ccccc5)CC4C3=O)c2)cc1C (stereo not drawn),-3%,0.42
O=C(O)[C@@H]1CCCN1Cc1ccn(-c2ccccc2)n1,4%,-0.6
